# PubChem BioAssay AID602393 (Broad Institute, 2012)
# Out of some 350,000 compounds screened, about 7,000 (2%) were called active. The inconclusive results got no clear call from the source; some entries with a clear call stand among them for comparison. Rule as the data show it: active = activation above about 40%; inconclusive = no clear call, values can overlap the other calls; inactive = below that.
# Experiment: raisers of Bmi1 knock-in reporter signal – mouse ES cells, Bmi1 luciferase knock-in, single point, esBAF inhibitor project, primary screen (AID 602393);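 also: 0% = median of the plate's neutral control wells and 100% = double that signal; a rise in the Bmi1 reporter signal indicates esBAF inhibition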
# Conditions: 24 h, at 12.5 µM, stronger effect = higher value, 100% = twice the neutral-well signal
row,SMILES,reporter increase
1,O=C(c1ccc(F)cc1)c1cc2ccccc2o1,active: 63.9%
2,O=C(NCc1ccccn1)c1c(O)c2c([nH]c1=O)CCCC2,inconclusive: 41.4%
3,C=CCSC1=Nc2sccc2C2=NC(=O)CN12,inactive: 1.19%
4,CC(=O)Nc1sc(C)c(C)c1C(=O)OCCOc1ccccc1,active: 55.3%
5,CN1c2ccc(-c3cccc(C#N)c3)cc2[C@@H]2[C@@H](CCN2C(=O)CN2CCOCC2)[C@H]1CO,inconclusive: 42.1%
6,COc1ccc([C@H]2CC(=O)C=C(/C=C/c3ccc(Cl)cc3)C2)cc1,inconclusive: 47.7%
7,CC(C)OCCCNC(=O)c1ccc(Br)cc1,inconclusive: 41.8%
8,CCc1c(O)nc(SCC(=O)Nc2ccccc2)n(C(C)CC)c1=O (configuration not stated),inconclusive: 40.6%
9,COc1cccc2cc(CC(=O)c3ccccc3)c(=O)oc12,inconclusive: 40.6%
10,CC(=O)N(/N=C1\Sc2ccccc2C1=O)c1cccc(C)c1,inconclusive: 42.3%
11,CS(=O)(=O)N1CCc2cc(C(=O)Nc3ccc(Br)cc3)ccc21,active: 47.6%
12,O=C(Nc1ccc(Cl)cc1[N+](=O)[O-])c1ccc2c(c1)OCCO2,inconclusive: 40.6%
13,CSc1ccccc1-c1nc(-c2ccncc2)no1,inconclusive: 39%
14,C/C(=N\NC(=O)c1cccc2ccccc12)c1cccs1,inconclusive: 40.4%
15,CCNC(=O)C[C@H]1CC[C@@H]2[C@@H](COc3ccc(NC(=O)Nc4cccc(F)c4)cc3C(=O)N2C)O1,inactive: -1.85%
16,CN(C)c1ccc(/C=N/c2cc(-c3ccccc3)nn2-c2ccccc2)cc1,active: 62.1%
17,COc1ccc(C2CC(c3ccccc3OC(=O)/C=C/c3ccccc3)=NN2C(C)=O)cc1 (configuration not stated),inconclusive: 48.7%
18,C[C@H](CO)N1C[C@H](C)[C@@H](CN(C)C(=O)c2ccccn2)Oc2ncc(C3=CCCCC3)cc2C1=O,inactive: -0.825%
19,COc1ccc(NC(=O)N(C)C[C@@H]2OCCCC[C@H](C)Oc3ccc(NC(=O)CCCN(C)C)cc3C(=O)N([C@@H](C)CO)C[C@H]2C)cc1,inactive: -4.19%
20,CCOc1ccc(Nc2nc(-c3cccnc3)cs2)cc1,active: 50.3%
21,CCC(C)Cn1cnc2c(SCc3ccccc3F)nc(N)nc21 (configuration not stated),inconclusive: 40.6%
22,O=C(Nc1ccccc1)Nc1ccc(C(F)(F)F)cn1,inconclusive: 40.9%
23,COc1ccc(Br)c(-c2nnc(CS(=O)(=O)c3ccccc3)o2)c1,inconclusive: 40.4%

row,SMILES,reporter increase
1,CCn1nnc(NC(=O)c2ccc(C(C)(C)C)cc2)n1,inconclusive: 41.3%
2,CN(C)S(=O)(=O)c1ccc(C(=O)Nc2nc3ccccc3[nH]2)cc1,active: 65.7%
3,Fc1ccccc1CSc1ncnc2c1oc1ccccc12,active: 41.7%
4,O=C(N/N=C\CCc1ccccc1)c1ccco1,inactive: -6.49%
5,CCC(=O)Nc1ccc(C(=O)OCc2ccccc2Cl)cc1,inconclusive: 44.8%
6,c1ccc(Nc2nc3ccccc3[nH]2)nc1,inconclusive: 40.2%
7,Nc1ccc2c(c1)C(=NO)c1ccccc1-2,inconclusive: 41.2%
8,C[C@H](CO)N1C[C@H](C)[C@H](CN(C)C(=O)CN(C)C)Oc2ncc(-c3ccc(C#N)cc3)cc2C1=O,inactive: 6.9%
9,CC(C)(C)c1ccc(OCc2ccc(C(=O)NCc3cccnc3)o2)cc1,inconclusive: 84.3%
10,C/[N+]([O-])=C/c1c(OCc2ccccc2)ccc2ccccc12,inconclusive: 44.1%
11,CC(=O)c1cccc(OCc2cc(C(=O)N(C)CCC3CCOCC3)no2)c1,active: 52.4%
12,c1ccc(C2CSc3ccccc3N2)cc1 (configuration not stated),inconclusive: 54.1%
13,CC(C)OC(=O)CSc1nc2cc3c(cc2cc1C#N)OCO3,active: 59.3%
14,O=C(COc1ccccc1Cl)N1CCc2ccccc21,active: 64.2%
15,C[C@@H]1CN([C@@H](C)CO)C(=O)c2cc(NS(=O)(=O)c3ccc(Cl)cc3)ccc2O[C@H]1CN(C)S(=O)(=O)c1ccc(Cl)cc1,inactive: -1.94%
16,O=C(NCCc1ccc(F)cc1)c1ccc2c(=O)n3c(nc2c1)CCC3,active: 54.1%
17,O=C(COC(=O)c1ccccc1NCCO)NCC1CCCCC1,inconclusive: 45.8%
18,CC12CCC(=O)N1C(C(=O)Nc1nc(-c3ccccc3Cl)cs1)CS2 (configuration not stated),inconclusive: 45.1%
19,C[C@]12CC[C@H]3C(=CCc4cc(O)ccc43)[C@@H]1CCC2=O,inconclusive: 40.8%
20,COc1cc2c(cc1OC)CN(c1ccc3ccccc3n1)CC2,inconclusive: 41.4%
21,Cc1cc(NC(=O)c2cccnc2)ccc1Br,inconclusive: 37.2%
22,O=C(Nc1ccccc1Cl)OC1CCCCC1,active: 56.1%
23,C[C@H](CO)N1C[C@H](C)[C@H](CN(C)C(=O)Nc2ccc3c(c2)OCO3)Oc2ccc(NC(=O)Cn3cnnn3)cc2CC1=O,inactive: 2.18%

row,SMILES,reporter increase
1,O=C(Nc1ccc2c(c1)ncn2-c1ccccc1)c1ccco1,inconclusive: 42.2%
2,CC(=O)C1CCCN(C(=O)c2ccc3oc(CCc4ccccc4)nc3c2)C1 (configuration not stated),inconclusive: 42.1%
3,CC(=O)Nc1ccc2nc(C)n(Cc3ccc(Cl)cc3)c(=O)c2c1,active: 54.9%
4,COc1ccccc1OCCNc1cc(N2CCOCC2)ccc1[N+](=O)[O-],inconclusive: 41.5%
5,O=C(CCl)N1CCCC1c1ccc2c(c1)OCCO2 (configuration not stated),inconclusive: 40.1%
6,Cc1ccc(-c2nnc(-c3cccnc3)o2)cc1,inactive: 19.8%
7,COc1ccccc1OCCCCOc1ccccc1F,inconclusive: 46.3%
8,COc1ccc(N2CCN(C(=O)C3Cc4ccccc4CN3C(=O)c3ccccc3)CC2)cc1 (configuration not stated),active: 72.4%
9,COc1ccc(C(=O)/C=C/Nc2cc(C)on2)cc1,inconclusive: 111%
10,CCCCOC(=O)n1c(=S)oc2cc(Cl)ccc21,inconclusive: 43%
11,CCCN1C(=O)c2ccc(C(=O)Nc3ccccc3C(=O)O)cc2C1=O,inconclusive: 70.3%
12,Cc1cccc(NC(=O)c2ccc(Cl)c(S(=O)(=O)N3CCCC3)c2)n1,inconclusive: 49.6%
13,CSc1nc(-c2ccc(Cl)cc2)nn1S(=O)(=O)c1ccccc1,inconclusive: 40.8%
14,COc1ccc(N2CCN(C(=O)c3ccc(NS(=O)(=O)c4ccccc4)cc3)CC2)cc1,inconclusive: 41.4%
15,Cc1cc(C(=O)COc2ncnc3sccc23)c(C)n1C1CC1,inconclusive: 43.5%
16,Cc1nc2ccc(NC(=O)N3CCN(c4ccccn4)CC3)cc2s1,inconclusive: 41%
17,Cc1ccsc1C(=O)OCC(=O)NC1CCCC1,inconclusive: 42.5%
18,Clc1ccccc1N/N=C/c1ccc2c(c1)OCO2,active: 78.1%
19,O=c1cnn(-c2ccccc2)c(-c2ccccc2)c1,inconclusive: 40.3%
20,CN(C)S(=O)(=O)Oc1cccc(C(=O)Nc2cccc(Cl)c2)c1,active: 44.4%
21,Cc1ccccc1/C=N/NC(=O)Cn1nnc(N)n1,inactive: -1.07%
22,Cc1ccc(C(=O)NN=Cc2ccc3c(c2)OCO3)cc1,active: 48.1%
23,O=C1OC(c2ccccc2)=N/C1=C\N1CCCCC1,active: 85.3%

row,SMILES,reporter increase
1,CCN(Cc1ccccc1)C(=O)CCCOc1ccccc1,inconclusive: 44.3%
2,COc1ccc(C(=O)N2CCn3c2nc2ccccc23)cc1,inconclusive: 36%
3,Cc1ccc(OCC(=O)Nc2cccc(-c3nnc(-c4ccccc4)o3)c2)c(C)c1,inconclusive: 47%
4,COc1ccc2[nH]cc(C(=O)CNc3nc(C)cs3)c2c1,active: 69.6%
5,C[C@@H]1CN([C@H](C)CO)C(=O)c2cccc(NS(=O)(=O)c3ccc(F)cc3)c2O[C@@H]1CN(C)S(C)(=O)=O,inactive: 2.22%
6,CCOC(=O)c1c(C)c(C(=O)N2CCN(c3cccc(Cl)c3)CC2)c(C)n1C,inactive: -0.711%
7,C[C@H](CO)N1C[C@H](C)[C@@H](CN(C)C(=O)CN(C)C)Oc2ncc(-c3ccc(F)cc3)cc2C1=O,inactive: 1.64%
8,Cc1cc(N2CCOCC2)nc(SCC(=O)c2ccccc2)n1,inconclusive: 41.4%
9,O=C(Nc1cccnc1Cl)c1ccc(Cl)cc1,inconclusive: 41.6%
10,Cc1ccc(Nc2ccc([N+](=O)[O-])cn2)cc1Cl,inconclusive: 41.3%
11,O=C(CSc1ccc(-c2ccccc2)nn1)N1CCCCC1,inconclusive: 38.8%
12,O=c1cccc2n1Cc1cc3ccccc3nc1-2,active: 53.5%
13,COc1cccc(OCc2cc(C(=O)NC(C)c3cnn(C)c3C)no2)c1 (configuration not stated),active: 43.8%
14,O=C(Nc1cccc(Cl)c1)c1csc(COCCO)n1,active: 47.3%
15,CCCC(=O)Nc1ccc2c(c1)C(=O)N(C)[C@@H]1CC[C@@H](CC(=O)Nc3ccccc3)O[C@@H]1CO2,inactive: -0.358%
16,COc1ccc(C(=O)Nc2nc(CC(=O)NCc3c(F)cccc3F)cs2)cc1,inconclusive: 41.8%
17,CCOc1cc(C2NN=C(c3ccccc3)S2)ccc1OCc1ccc(F)cc1 (configuration not stated),inconclusive: 41.4%
18,O=C(NCc1ccco1)Nc1ccc(Br)cc1Cl,inconclusive: 42.1%
19,O=C1c2ccccc2C(=O)N1CCCOc1ccccc1,inconclusive: 43.3%
20,Cc1ccc(-c2cn(-c3ccccc3)c(=S)[nH]2)cc1C,inconclusive: 42.7%
21,c1ccc(N2CCN(c3nccn4ccnc34)CC2)nc1,inconclusive: 42.2%
22,CCCc1c(C)c2ccc(OCC(C)=O)cc2oc1=O,inconclusive: 40.2%
23,COc1cccc(NC(=O)Nc2ccc3c(c2)C(=O)N(C)C[C@@H](OC)[C@@H](C)CN(C)[C@@H](C)CO3)c1,inactive: 12.3%
